Measurements from publication PMC5892938.
This is one part of the list. At the low end of the ranking, values are background and their order means little.

Molecular target: GST-SBP-SLBP (stem-loop binding protein) (UniProt Q14493)
Test: targeted RNA Bind-n-Seq;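 also: DESeq read counts versus GST-SBP nonspecific binding control pulldown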
Conditions: RBNS binding buffer: 25 mM Tris pH 7.5, 150 mM KCl, 3 mM MgCl2, 0.1% Tween, 0.5 mg/mL BSA, 1 mM DTT; 27 nM protein, 750 pM RNA pool; temperature not stated; high values mean tight binding

Row | Sequence | binding signal (log2 fold change)
1 | GGUCACGUCUCAAUCAACUCAACGCCAGGAGUUUCCUCCUGCUAUUUCAACAGCUCGCAGUCAAG | 0.0199
2 | GGUCACGUCUCAAUCAACUCCAAAGAGGGGGGGAAAACCCCUUUGCCCUCCGUAUCAACAGCUCGCAGUCAAG | -0.311
3 | GGUCACGUCUCAAUCAACUCAAUUCCCAGGGAAAACCCUGGCAUAUUCAACAGCUCGCAGUCAAG | 0.125
4 | GGUCACGUCUCAAUCAACUCUUCCUCCAGGGAAAUCCCUGGCAUUUUCAACAGCUCGCAGUCAAG | 0.0961
5 | GGUCACGUCUCAAUCAACUCUUUUUCAGGAGUUUACUCCUGUUUAUUCAACAGCUCGCAGUCAAG | 0.00319
6 | GGUCACGUCUCAAUCAACUCUAUCCCCAGGGAAAUCCCUGGCAAUCUCAACAGCUCGCAGUCAAG | 0.11
7 | GGUCACGUCUCAAUCAACUCAUCUCCAGGAGUUUUCUCCUGCAUACUCAACAGCUCGCAGUCAAG | 0.147
8 | GGUCACGUCUCAAUCAACUCUACUCCCAGGGAAACCCCUGGCUUUUUCAACAGCUCGCAGUCAAG | -0.21
9 | GGUCACGUCUCAAUCAACUCAACUCCAGGAGUUUGCUCCUGCAUUCUCAACAGCUCGCAGUCAAG | 0.13
10 | GGUCACGUCUCAAUCAACUCAUUUUCCAGGGAAAACCCUGGCGUAUUCAACAGCUCGCAGUCAAG | -0.0201
11 | GGUCACGUCUCAAUCAACUCUAGUCCCAGGGAAAUCCCUGGCUUUUUCAACAGCUCGCAGUCAAG | 0.0712
12 | GGUCACGUCUCAAUCAACUCCCUAGAGGGGGGGAAAACCCCUUUACCCUCAUUUUCAACAGCUCGCAGUCAAG | 0.2
13 | GGUCACGUCUCAAUCAACUCUUCGCCCAGGGAAAACCCUGGUUUAUUCAACAGCUCGCAGUCAAG | -0.012
14 | GGUCACGUCUCAAUCAACUCAUCCUCAGGAGUUUACUCCUGCUUAGUCAACAGCUCGCAGUCAAG | 0.139
15 | GGUCACGUCUCAAUCAACUCACUAGAGGGGGGGAAAACCCCUUUACCCUCGUCCUCAACAGCUCGCAGUCAAG | -0.285
16 | GGUCACGUCUCAAUCAACUCUUUUUCAGGAGUUUCCUCCUGCAUAUUCAACAGCUCGCAGUCAAG | -0.0124
17 | GGUCACGUCUCAAUCAACUCAUUUUCAGGAGUUUUCUCCUGCUUUCUCAACAGCUCGCAGUCAAG | 0.107
18 | GGUCACGUCUCAAUCAACUCUACGGCAGGAGUUUACUCCUGGAAUCUCAACAGCUCGCAGUCAAG | 0.318
19 | GGUCACGUCUCAAUCAACUCAUCUCCCAGGGAAAUCCCUGGUAUACUCAACAGCUCGCAGUCAAG | 0.192
20 | GGUCACGUCUCAAUCAACUCAUCUUCCAGGGAAAGCCCUGGCAUUCUCAACAGCUCGCAGUCAAG | 0.0623
21 | GGUCACGUCUCAAUCAACUCAUUCUCAGGAGUUUGCUCCUGCAUAUUCAACAGCUCGCAGUCAAG | -0.067
22 | GGUCACGUCUCAAUCAACUCUACUUCAGGAGUUUCCUCCUGUAAUCUCAACAGCUCGCAGUCAAG | -0.021
23 | GGUCACGUCUCAAUCAACUCUAUCCCAGGAGUUUCCUCCUGCUAUUUCAACAGCUCGCAGUCAAG | 0.0632
24 | GGUCACGUCUCAAUCAACUCAACUUCCAGGGAAACCCCUGGUUUUCUCAACAGCUCGCAGUCAAG | -0.572
25 | GGUCACGUCUCAAUCAACUCUUCGUCCAGGGAAACCCCUGGUUAAUUCAACAGCUCGCAGUCAAG | -0.0876

Row | Sequence | binding signal (log2 fold change)
26 | GGUCACGUCUCAAUCAACUCUUUUCCAGGAGUUUUCUCCUGUUUAUUCAACAGCUCGCAGUCAAG | -0.197
27 | GGUCACGUCUCAAUCAACUCCCUAGAGGGGGGGAAAACCCCUUUGCCCUCAAUUUCAACAGCUCGCAGUCAAG | 0.164
28 | GGUCACGUCUCAAUCAACUCAUCCCCCAGGGAAAGCCCUGGUUAACUCAACAGCUCGCAGUCAAG | -0.165
29 | GGUCACGUCUCAAUCAACUCUUUCUCCAGGGAAAACCCUGGUUUUUUCAACAGCUCGCAGUCAAG | -0.186
30 | GGUCACGUCUCAAUCAACUCAUCGUCAGGAGUUUGCUCCUGUAUUCUCAACAGCUCGCAGUCAAG | -0.12
31 | GGUCACGUCUCAAUCAACUCAUCUUCAGGAGUUUCCUCCUGCAAUCUCAACAGCUCGCAGUCAAG | 0.0719
32 | GGUCACGUCUCAAUCAACUCUUCCUCAGGAGUUUACUCCUGCAAUCUCAACAGCUCGCAGUCAAG | -0.0411
33 | GGUCACGUCUCAAUCAACUCAAUCUCAGGAGUUUCCUCCUGCUAUUUCAACAGCUCGCAGUCAAG | -0.0837
34 | GGUCACGUCUCAAUCAACUCACUAGAGGGGGGGAAAACCCCUUUGCCCUCAUCAUCAACAGCUCGCAGUCAAG | 0.283
35 | GGUCACGUCUCAAUCAACUCAAAAGAGGGGGGGAAAACCCCUUUACCCUCCACCUCAACAGCUCGCAGUCAAG | 0.0649
36 | GGUCACGUCUCAAUCAACUCAACUUCAGGAGUUUGCUCCUGUUAAUUCAACAGCUCGCAGUCAAG | 0.0511
37 | GGUCACGUCUCAAUCAACUCAAUCCCCAGGGAAACCCCUGGUUAUCUCAACAGCUCGCAGUCAAG | -0.17
38 | GGUCACGUCUCAAUCAACUCUAAAGAGGGGGGGAAAACCCCUUUGCCCUCACAAUCAACAGCUCGCAGUCAAG | 0.134
39 | GGUCACGUCUCAAUCAACUCUAUCCCAGGAGUUUACUCCUGUUAACUCAACAGCUCGCAGUCAAG | 0.16
40 | GGUCACGUCUCAAUCAACUCUUUAGAGGGGGGGAAAACCCCUUUGCCCUCAUUUUCAACAGCUCGCAGUCAAG | -0.0931
41 | GGUCACGUCUCAAUCAACUCCCAAGAGGGGGGGAAAACCCCUUUACCCUCCGUUUCAACAGCUCGCAGUCAAG | -0.286
42 | GGUCACGUCUCAAUCAACUCUUACGAGGGGGGGAAAACCCCUUUGCCCUCAAAAUCAACAGCUCGCAGUCAAG | -0.694
43 | GGUCACGUCUCAAUCAACUCUAUGUCAGGAGUUUCCUCCUGUAAAUUCAACAGCUCGCAGUCAAG | -0.0191
44 | GGUCACGUCUCAAUCAACUCACUAGAGGGGGGGAAAACCCCUUUACCCUCCAAAUCAACAGCUCGCAGUCAAG | -0.223
45 | GGUCACGUCUCAAUCAACUCUACUCCAGGAGUUUGCUCCUGCAUAUUCAACAGCUCGCAGUCAAG | 0.137
46 | GGUCACGUCUCAAUCAACUCUUUCCCAGGAGUUUACUCCUGUAUAUUCAACAGCUCGCAGUCAAG | 0.0568
47 | GGUCACGUCUCAAUCAACUCAUGUCCAGGAGUUUUCUCCUGCAAAUUCAACAGCUCGCAGUCAAG | -0.136
48 | GGUCACGUCUCAAUCAACUCAAUCGAGGGGGGGAAAACCCCUUUACCCUCAUUAUCAACAGCUCGCAGUCAAG | -0.0662
49 | GGUCACGUCUCAAUCAACUCUUCCCCCAGGGAAACCCCUGGCAUUUUCAACAGCUCGCAGUCAAG | -0.0277
50 | GGUCACGUCUCAAUCAACUCUUUCUCCAGGGAAAACCCUGGCAUACUCAACAGCUCGCAGUCAAG | 0.246

Row | Sequence | binding signal (log2 fold change)
51 | GGUCACGUCUCAAUCAACUCAUCCCCCAGGGAAACCCCUGGCUUUCUCAACAGCUCGCAGUCAAG | -0.17
52 | GGUCACGUCUCAAUCAACUCAGUUCCAGGAGUUUUCUCCUGUUUUUUCAACAGCUCGCAGUCAAG | -0.224
53 | GGUCACGUCUCAAUCAACUCAUUCUCAGGAGUUUACUCCUGCUAAUUCAACAGCUCGCAGUCAAG | 0.0465
54 | GGUCACGUCUCAAUCAACUCAAUUCCAGGAGUUUUCUCCUGUAUUUUCAACAGCUCGCAGUCAAG | -0.0528
55 | GGUCACGUCUCAAUCAACUCAUGUCCCAGGGAAAUCCCUGGUUUUUUCAACAGCUCGCAGUCAAG | -0.427
56 | GGUCACGUCUCAAUCAACUCAUUUUCAGGAGUUUGCUCCUGUUUUCUCAACAGCUCGCAGUCAAG | 0.115
57 | GGUCACGUCUCAAUCAACUCUAUAGAGGGGGGGAAAACCCCUUUGCCCUCAUCUUCAACAGCUCGCAGUCAAG | 0.0424
58 | GGUCACGUCUCAAUCAACUCUCUAGAGGGGGGGAAAACCCCUUUACCCUCGUCAUCAACAGCUCGCAGUCAAG | -0.0542
59 | GGUCACGUCUCAAUCAACUCGUCUUCAGGAGUUUACUCCUGUAUUUUCAACAGCUCGCAGUCAAG | 0.167
60 | GGUCACGUCUCAAUCAACUCUCUAGAGGGGGGGAAAACCCCUUUACCCUCACCAUCAACAGCUCGCAGUCAAG | 0.354
61 | GGUCACGUCUCAAUCAACUCGUCUUCAGGAGUUUUCUCCUGCUUAUUCAACAGCUCGCAGUCAAG | -0.116
62 | GGUCACGUCUCAAUCAACUCAUCUUCAGGAGUUUUCUCCUGCAUAGUCAACAGCUCGCAGUCAAG | 0.197
63 | GGUCACGUCUCAAUCAACUCAUUCUCCAGGGAAAACCCUGGUAUUUUCAACAGCUCGCAGUCAAG | 0.206
64 | GGUCACGUCUCAAUCAACUCAAUCCCAGGAGUUUACUCCUGCUUUCUCAACAGCUCGCAGUCAAG | -0.178
65 | GGUCACGUCUCAAUCAACUCAUUCCCCAGGGAAAGCCCUGGUUAUCUCAACAGCUCGCAGUCAAG | -0.0592
66 | GGUCACGUCUCAAUCAACUCACACGAGGGGGGGAAAACCCCUUUGCCCUCAUUAUCAACAGCUCGCAGUCAAG | -0.504
67 | GGUCACGUCUCAAUCAACUCUACUCCAGGAGUUUCCUCCUGUUUUCUCAACAGCUCGCAGUCAAG | 0.0612
68 | GGUCACGUCUCAAUCAACUCUAUCUCAGGAGUUUACUCCUGUUAAUUCAACAGCUCGCAGUCAAG | 0.00698
69 | GGUCACGUCUCAAUCAACUCAUUCGAGGGGGGGAAAACCCCUUUACCCUCAUCUUCAACAGCUCGCAGUCAAG | -0.316
70 | GGUCACGUCUCAAUCAACUCAUUUUCAGGAGUUUCCUCCUGCUAUCUCAACAGCUCGCAGUCAAG | 0.0173
71 | GGUCACGUCUCAAUCAACUCAUUCUCAGGAGUUUACUCCUGCUUAUUCAACAGCUCGCAGUCAAG | 0.0387
72 | GGUCACGUCUCAAUCAACUCAUUCUCCAGGGAAAGCCCUGGUUUACUCAACAGCUCGCAGUCAAG | 0.212
73 | GGUCACGUCUCAAUCAACUCAUUCUCAGGAGUUUCCUCCUGCAAACUCAACAGCUCGCAGUCAAG | -0.103
74 | GGUCACGUCUCAAUCAACUCUUCUUCAGGAGUUUCCUCCUGUUAACUCAACAGCUCGCAGUCAAG | 0.08
